The test system of one assay is A549. Put plainly: mean average precision of replicate retrieval against DMSO controls (Cell Painting phenotypic activity) (fraction (0-1)); higher = stronger, more reproducible morphological phenotype distinct from DMSO; extreme values may be limits of the assay. Conditions: 5 µM.
The next assay relates to U2OS. The description is as above. Conditions: 5 µM.

The values below come from the supplement of paper PMC11166567.

The list shows a part of the results.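 How the source made its calls: active = permutation test q below 0.05 after Benjamini-Hochberg correction; inactive = q of 0.05 or more.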
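Further: cosine similarity of well-level aggregated Cell Painting profiles ranks each compound's replicate wells against DMSO wells, four replicate plates, significance from 100,000 rank shuffles.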

Take `C[S+]([O-])c1ccc(-c2nc(-c3ccc(F)cc3)c(-c3ccncc3)[nH]2)cc1` (configuration not stated): the mean average precision with A549 (24 h), in the assay with A549 (48 h), in the assay with U2OS (24 h) and in the assay on U2OS (48 h) was active: 1 throughout.
On to `CCCC[C@@H](NC(=O)[C@@H](Cc1cn(C(=O)OC)c2ccccc12)NC(=O)[C@H](CC(C)(C)C)NC(=O)N1[C@H](C)CCC[C@@H]1C)C(=O)O`, for which the mean average precision in the assay on A549 (24 h) is inactive: 0.218; with A549 (48 h), active: 0.276; in the assay on U2OS (24 h), active: 0.417; with U2OS (48 h) it was inactive: 0.13.
For `CC(=O)SCC(Cc1ccccc1)C(=O)NCC(=O)OCc1ccccc1` (configuration not stated) the same measures were active: 0.526, active: 0.729, inactive: 0.288 and inactive: 0.171.
